Read counts are not given, so values of variants with three or more changes are uncertain.
B1: CPEB3 Ribozyme (parent)
chain: UAACAGGGGGCCACAGCAGAAGCGUUCACGUCGCAGCCCCUGUCAGAUUCUGGUGAAUCUGCGAAUUCUGCUGUAUAUCUC

Variants of: B1
Test: self-cleavage, relative activity (ratio to wild type); higher = more cleavage; in vitro, sequencing
How it was run: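 After error-prone PCR and barcoding, CPEB3 ribozyme mutant libraries were transcribed with T7 RNA polymerase at 37°C for 5 hours, then given 15 min with DNase I before an EDTA stop, and they cleaved during both steps. Reverse transcription with template switching preceded Illumina sequencing. Relative activity divides a variant's cleaved/total read fraction by the unmutated ribozyme's. At least 5 reads were required per variant, and three batches were averaged.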

Row | Variant | self-cleavage
1 | A5U C29U C79G | 0.85
2 | A5U G9A A35G A45C U48C A56G U78C | 0.06
3 | A5U G33U A56G U80A | 0.24
4 | A5U G10A A15G U54A U80A | 0.24
5 | A5U A28C A56G | 0.67
6 | A5U C37U U80C | 0.51
7 | A5U A75U A77G | 1.17
8 | A5U G16A U31C U49C U78C U80C | 0.07
9 | A5U G10C A45U U51C A56G A64G G70U | 0.13
10 | A5U G8A A47G U69A U72C U80C | 0.31
11 | A5U A47G U69A U80C | 0.63
12 | A5U G10U A28G U31A G52A U80A | 0.29
13 | A5U C11U A57G | 0.56
14 | A5U C17U G42A C50U | 0.04
15 | A5U U25A U26C A45G G55A A56U | 0.16
16 | A5U A35G A64G U80C | 1.25
17 | A5U G7U U31A A35G C62A U72C | 0.1
18 | A5U C27U U41A U43C U78C | 0.21
19 | A5U G30A U58A | 0.26
20 | A5U G10A U58C U67A U69C U72C | 0.09
21 | A5U A28G U43C | 0.41

Row | Variant | self-cleavage
22 | A5U G10A U48C U54A U60A | 0.19
23 | A5U A45G U49C U54C U72C | 0.27
24 | A5U G7U A20C U41C | 0.06
25 | A5U A28G C29A U31C U43C U80G | 0.22
26 | A5U U25C A28G C44A | 0.3
27 | A5U G36U U72C A77U | 0.22
28 | A5U A28G A35G U48C | 0.66
29 | A5U A57G U60C U66A | 0.22
30 | A5U U25A A35G C40U A56G U67C | 0.09
31 | A5U G9A A21U U54A U66A | 0.1
32 | A5U A28G U72C A77G | 0.97
33 | A5U A35U U54C U60C | 0.14
34 | A5U C39A A45U C68A | 0.11
35 | A5U U25C C40U A47G U51A C79U | 0.08
36 | A5U C12U A20U U25C C32U A64G | 0.2
37 | A5U G7C A13U A47G | 0.08
38 | A5U C34A A45G U48C U54A | 0.11
39 | A5U A28C U31C U49C G55C A64G U78C | 0.08
40 | A5U A28G U31C A35U A56U U74C | 0.16
41 | A5U C44U U60A U69C U74C | 0.12
42 | A5U C27A G33A C71G U78C | 0.09

Row | Variant | self-cleavage
43 | A5U G6A U74C | 0.78
44 | A5U A65U U66C | 0.17
45 | A5U C29A A65G U80A | 0.42
46 | A5U G42U U58A | 0.1
47 | A5U U25C A57G A65G U78A | 0.14
48 | A5U C17A U54C U76C U80C | 0.19
49 | A5U A56G A77G | 0.86
50 | A5U C29A U49C U69A U72C | 0.19
51 | A5U C23A A28G U54C U80C | 0.1
52 | A5U C12A A20U A35G | 0.52
53 | A5U G19U C50A | 0.04
54 | A5U U25C A28G U54C U69A U72C | 0.12
55 | A5U C34U C38A G46A | 0.1
56 | A5U A47G U51G U66C C81U | 0
57 | A5U G8A U43A A45G C71G U78C U80A | 0.03
58 | A5U C23U A35U U54A A56G U67C U72C | 0.1
59 | A5U A28U U54C U74C A75G | 1.23
60 | A5U G6A A15G U43A U69A U80A | 0.27
61 | A5U C17U U49C A57G A75U | 0.24
62 | A5U A47G U51G U66C U74C | 0.09
63 | A5U C34U A35G | 0.46

Row | Variant | self-cleavage
64 | A5U G7U U31C A35U U41C U60C | 0.06
65 | A5U C17U U74A U76C | 1.21
66 | A5U G10C A13G U25G U51A U80A | 0.05
67 | A5U C27A A47U U49C | 0.08
68 | A5U G6U U69G | 0.35
69 | A5U G10A A15G U41A U54A U76C U78G | 0.05
70 | A5U C12U A15G U41C | 0.55
71 | A5U C14U C38U | 0.82
72 | A5U A35U U48C C50G | 0.22
73 | A5U G33C C71U U72A | 0.08
74 | A5U C12G A13G U26C A45C | 0.12
75 | A5U C38U A57G U72C | 0.62
76 | A5U G22C C37U | 0.1
77 | A5U U25C C27U G63U | 0.29
78 | A5U G9U C39U U43C G52C U67C | 0.05
79 | A5U C11U U54C A56G | 0.14
80 | A5U G9A A15G U49C A64G | 0.16
81 | A5U A64U U69C | 0.25
82 | A5U G52C U72A | 0.81
83 | A5U G7A A35U U41G U48C A57G A65G | 0.05
84 | A5U C14U A20G A64G | 1.06

Source: the RNAGym collection of RNA variant scans (doi:10.1093/nar/gkz1192)
